Test results reported in paper PMC3513311.
These are yes or no findings as the source states them, for the method shown. For some of these results: In cells and extracts the contact can be indirect. Some results given as binding are weak or reduced against the parent protein; the word gives no strength. Where a sequence is shown, tags or fusion partners need not be part of it. One block for each binder: values may come before it.

Assays:
[1] = molecular target: T1, N-terminally His-tagged Csy1 (Pectobacterium atrosepticum SCRI1043) (UniProt Q6D0W8); experiment: pull-down; His-Csy1 and native Csy2 co-purified from the Δcas mutant; unpublished data
T1 sequence: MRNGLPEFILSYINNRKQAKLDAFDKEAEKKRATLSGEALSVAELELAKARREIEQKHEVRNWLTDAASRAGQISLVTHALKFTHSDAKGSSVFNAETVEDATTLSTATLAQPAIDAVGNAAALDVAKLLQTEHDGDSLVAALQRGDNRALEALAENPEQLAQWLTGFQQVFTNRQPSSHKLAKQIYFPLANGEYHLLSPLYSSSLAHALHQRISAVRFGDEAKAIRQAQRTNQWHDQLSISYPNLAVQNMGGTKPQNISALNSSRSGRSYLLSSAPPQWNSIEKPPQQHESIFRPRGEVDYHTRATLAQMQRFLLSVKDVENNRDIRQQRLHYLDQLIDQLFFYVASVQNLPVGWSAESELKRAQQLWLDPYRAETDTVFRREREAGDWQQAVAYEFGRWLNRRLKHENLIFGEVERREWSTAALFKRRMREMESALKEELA

[2] = molecular target: T1, N-terminally His-tagged Csy1 (Pectobacterium atrosepticum SCRI1043); experiment: SEC; His-Csy1 and native Csy2 co-purified from the Δcas mutant, size exclusion column; unpublished data
[3] = molecular target: T2, N-terminally His-tagged Cas1 (Pectobacterium atrosepticum SCRI1043) (UniProt Q6D0X0); experiment: SEC; His-Cas1 and Cas3 co-expressed and co-purified on Ni-NTA, dialysed into 20 mM HEPES, 300 mM KCl, 5% glycerol, 1 mM DTT, Superose 12 (10/300) GL; fractions on SDS-PAGE
T2 sequence: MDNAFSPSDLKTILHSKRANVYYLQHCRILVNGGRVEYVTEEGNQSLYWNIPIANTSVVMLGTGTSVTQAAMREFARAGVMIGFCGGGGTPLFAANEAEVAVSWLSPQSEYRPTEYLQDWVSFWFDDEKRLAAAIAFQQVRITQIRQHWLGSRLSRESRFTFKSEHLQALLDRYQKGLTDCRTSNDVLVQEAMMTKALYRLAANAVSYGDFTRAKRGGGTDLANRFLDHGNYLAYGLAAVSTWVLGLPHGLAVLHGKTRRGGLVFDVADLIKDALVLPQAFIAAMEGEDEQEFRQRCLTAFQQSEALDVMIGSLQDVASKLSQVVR

[4] = molecular target: T3, N-terminally FLAG-tagged Csy3 (Pectobacterium atrosepticum SCRI1043), Q6D0W6; experiment: co-IP; P. atrosepticum Δcas strain (no cas1, cas3, csy1-3, cas6f operon, no mature crRNAs); N- or C-terminally FLAG-tagged bait and N-terminally His-tagged prey co-expressed; anti-FLAG agarose; Western blot with anti-His; conditions: remark: other sources report otherwise
T3 chain: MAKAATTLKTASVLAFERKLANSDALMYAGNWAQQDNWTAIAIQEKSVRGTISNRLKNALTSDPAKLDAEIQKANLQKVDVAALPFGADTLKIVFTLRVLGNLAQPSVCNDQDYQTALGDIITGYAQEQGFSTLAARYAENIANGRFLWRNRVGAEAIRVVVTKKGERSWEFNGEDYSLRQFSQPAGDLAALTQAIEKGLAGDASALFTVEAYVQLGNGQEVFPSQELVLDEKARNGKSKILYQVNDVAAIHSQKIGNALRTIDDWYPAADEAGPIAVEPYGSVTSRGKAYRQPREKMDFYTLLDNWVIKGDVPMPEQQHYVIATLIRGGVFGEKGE

[5] = molecular target: T4, C-terminally FLAG-tagged Csy3 (Pectobacterium atrosepticum SCRI1043), Q6D0W6; experiment: as above; conditions: remark: other sources report otherwise
T4 chain: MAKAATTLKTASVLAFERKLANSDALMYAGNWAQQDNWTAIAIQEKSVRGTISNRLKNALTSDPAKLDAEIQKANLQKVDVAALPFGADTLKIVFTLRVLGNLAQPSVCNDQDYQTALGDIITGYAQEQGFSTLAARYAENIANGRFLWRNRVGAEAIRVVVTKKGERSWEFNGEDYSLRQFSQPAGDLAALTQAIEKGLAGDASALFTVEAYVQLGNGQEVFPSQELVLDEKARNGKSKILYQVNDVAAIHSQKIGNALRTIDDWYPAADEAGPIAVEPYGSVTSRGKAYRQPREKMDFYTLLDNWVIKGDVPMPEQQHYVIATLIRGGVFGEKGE

[6] = molecular target: T3, N-terminally FLAG-tagged Csy3 …; experiment: co-IP; P. atrosepticum WT strain (chromosomal Cas/Csy proteins and crRNAs present); N- or C-terminally FLAG-tagged bait and N-terminally His-tagged prey co-expressed; anti-FLAG agarose; Western blot with anti-His; conditions: remark: other sources report otherwise
[7] = molecular target: T4, C-terminally FLAG-tagged Csy3 …; experiment: as above; conditions: remark: other sources report otherwise
[8] = molecular target: T5, C-terminally FLAG-tagged Csy1 (Pectobacterium atrosepticum SCRI1043), Q6D0W8; experiment: co-IP; P. atrosepticum Δcas strain (no cas1, cas3, csy1-3, cas6f operon, no mature crRNAs); N- or C-terminally FLAG-tagged bait and N-terminally His-tagged prey co-expressed; anti-FLAG agarose; Western blot with anti-His; conditions: remark: other sources report otherwise
T5 chain: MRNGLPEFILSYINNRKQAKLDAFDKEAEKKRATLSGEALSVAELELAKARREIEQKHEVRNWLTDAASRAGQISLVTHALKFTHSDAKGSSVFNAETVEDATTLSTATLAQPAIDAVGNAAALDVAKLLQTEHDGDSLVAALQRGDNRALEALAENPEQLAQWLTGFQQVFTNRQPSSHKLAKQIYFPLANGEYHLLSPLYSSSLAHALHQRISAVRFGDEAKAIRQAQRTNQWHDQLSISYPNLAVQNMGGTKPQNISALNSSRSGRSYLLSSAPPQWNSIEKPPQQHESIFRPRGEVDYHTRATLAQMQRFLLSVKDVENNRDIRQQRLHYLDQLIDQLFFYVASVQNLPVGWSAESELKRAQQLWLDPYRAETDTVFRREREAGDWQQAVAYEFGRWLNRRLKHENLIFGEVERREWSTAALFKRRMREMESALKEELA

[9] = molecular target: T6, C-terminally FLAG-tagged Cas6f (Pectobacterium atrosepticum SCRI1043), Q6D0W5; experiment: as above; conditions: remark: other sources report otherwise
T6 chain: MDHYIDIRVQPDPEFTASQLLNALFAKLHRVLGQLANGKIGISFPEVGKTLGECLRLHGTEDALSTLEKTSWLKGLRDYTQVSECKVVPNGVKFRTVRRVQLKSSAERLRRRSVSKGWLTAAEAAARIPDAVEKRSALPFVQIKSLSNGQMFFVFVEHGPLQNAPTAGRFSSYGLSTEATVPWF

[10] = molecular target: T7, N-terminally FLAG-tagged Csy1 (Pectobacterium atrosepticum SCRI1043), Q6D0W8; experiment: as above; conditions: remark: other sources report otherwise
T7 chain: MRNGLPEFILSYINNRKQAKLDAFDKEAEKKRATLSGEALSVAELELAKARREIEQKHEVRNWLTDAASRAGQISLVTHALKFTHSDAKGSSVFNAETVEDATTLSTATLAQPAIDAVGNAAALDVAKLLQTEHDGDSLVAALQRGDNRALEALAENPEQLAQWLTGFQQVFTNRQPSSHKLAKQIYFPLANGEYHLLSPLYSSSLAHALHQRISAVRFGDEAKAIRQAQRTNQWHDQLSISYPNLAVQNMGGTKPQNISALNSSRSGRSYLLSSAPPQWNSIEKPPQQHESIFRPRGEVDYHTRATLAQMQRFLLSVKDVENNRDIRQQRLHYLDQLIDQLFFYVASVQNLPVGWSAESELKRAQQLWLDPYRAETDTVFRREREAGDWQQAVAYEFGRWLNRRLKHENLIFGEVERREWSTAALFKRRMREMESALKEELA

[11] = molecular target: T5, C-terminally FLAG-tagged Csy1 …; experiment: co-IP; P. atrosepticum WT strain (chromosomal Cas/Csy proteins and crRNAs present); N- or C-terminally FLAG-tagged bait and N-terminally His-tagged prey co-expressed; anti-FLAG agarose; Western blot with anti-His; conditions: remark: other sources report otherwise
[12] = molecular target: T6, C-terminally FLAG-tagged Cas6f …; experiment: as above; conditions: remark: other sources report otherwise
[13] = molecular target: T7, N-terminally FLAG-tagged Csy1 …; experiment: as above; conditions: remark: other sources report otherwise

binding [1]: binds
binding [2]: binds
B1: native (untagged) Csy2 (protein, UniProt Q6D0W7 1-310)
chain: MSTLIILRRIQVENANAIAGLTYGFPAITHFLGFTHALSRKLQASHGLTLEGCGVVSHQHQLHAYGSSWERSFALTRNPLTKEAKTAAFNEEGRMHMTVSLLIRCDGQIPADTTALCEHLKQQAQCQRLAGGTVIDIERVTVQSLPVDEAETRGVMRRLLPGFVLRDRTSLLHRHFQTLQQAKPQAEMIDAWLDFAALKMQAERDPSDETVQWKYLPKPGDGGFLTPLMIGYRAISPLYAPGEVDKTRDPHTPFCFAEAAYGIGEWQGAHRISDISQILWEYDYQNGDYHCRQVADTHSVAEDTSYEFDY

binding [3]: binds
B2: native (untagged) Cas3 (enzyme, UniProt Q6D0W9 1-1098)
chain: MNILLISECNKRALVETRRILDQFAERKGERSWQTAITLEGLNTLRKLLRKTARRNTAVACHWIRSTNHTELLWVVGNLRRFNAQGSVPTNTTSRDVLRTKDENPWHSAEVFSLLAAIAGLFHDVGKANALFQAGLSGTGPRSQPYRHEWVSLRLFQAFVGEQDDKAWLTTLSMITSEAEVALLATLQQDKPTFSDSPFRTLPPLAQTIAWLIVSHHRLPVFNKSTELAPNSSEPQLSFAETWLTDHLSPQWNALNHCQIGWTPHEREQNWQFPNGTPLYSAVWREKARKFAGRALKLPSFMHFSQLDQRLTVHLARLALMLADHHYSAGAATVGWQDITYPVWANTDRKTGEYKQRLDEHCVGVGQNALLLGRSLPHLRDTLPAITRHKGFRQRSTHPRFRWQDRAFDLACSIRETSKQHGFFGINMASTGRGKTFANARIMYGLSDESTGCRFSVALGLRTLTLQTGDALRQRLKLDEDDLAVLIGSQAVQDLHEMRKENQQRQQNTPQTGSESADPLFSEHQYVRYDGSLDDGRLKAWLERSPTLHQLLSAPVLITTIDHLMPATEALRGGHQIAPMLRLLTADLVLDEPDDFGLEDLPALCRLVNWAGMLGSRVLLSSATLPPALIRALFDAYLDGRTAWQQAYGTPNTPLNVCCGWFDEFDCQHEQYGDVKDFMVRHDAFVHQRLKNLTKDELPLRFATIVPVSSPSKNADDVYLAVAQAIHPRMFDLHSQHHQQHENGKTVSLGLVRMANIDPLVAVARQLLAIPSPPDTCIHYCIYHSQHPLAMRSHIEQRLDAALMRNDADALWQVEEIRQAIEKSSQRHHVFVALATSVAEVGRDHDYDWAIVEPSSMRSLIQPAGRILRHRQDKQYVPKTPNIYLLSHNIRALRGKDIAYCKPGFESQDDSLDTHDLHQLLQEKEYRHLSAAPRIVQPMSFAKPLSLVALEHAVLGKTLLGLKNKKLDDLKRPPAAFWWRAHPHWNGELQRRTPFRQSAKDEAYTLWIADDDEEPVFMVQDDGPSGWKQSDIARPVTLNMAEGVSAWIEPDYHALYQQLAEEKQWELSWVSARFGEIRLREEEDWYWHPLLGVFGALS

binding [4]: no binding
binding [5]: no binding
binding [6]: no binding
binding [7]: no binding
B3: N-terminally His-tagged Cas6f, Q6D0W5 1-184 (enzyme)
chain: MDHYIDIRVQPDPEFTASQLLNALFAKLHRVLGQLANGKIGISFPEVGKTLGECLRLHGTEDALSTLEKTSWLKGLRDYTQVSECKVVPNGVKFRTVRRVQLKSSAERLRRRSVSKGWLTAAEAAARIPDAVEKRSALPFVQIKSLSNGQMFFVFVEHGPLQNAPTAGRFSSYGLSTEATVPWF

binding [8]: no binding
binding [9]: no binding
binding [10]: no binding
binding [11]: no binding
binding [12]: no binding
binding [13]: no binding
B4: N-terminally His-tagged Csy3, Q6D0W6 1-337 (protein)
chain: MAKAATTLKTASVLAFERKLANSDALMYAGNWAQQDNWTAIAIQEKSVRGTISNRLKNALTSDPAKLDAEIQKANLQKVDVAALPFGADTLKIVFTLRVLGNLAQPSVCNDQDYQTALGDIITGYAQEQGFSTLAARYAENIANGRFLWRNRVGAEAIRVVVTKKGERSWEFNGEDYSLRQFSQPAGDLAALTQAIEKGLAGDASALFTVEAYVQLGNGQEVFPSQELVLDEKARNGKSKILYQVNDVAAIHSQKIGNALRTIDDWYPAADEAGPIAVEPYGSVTSRGKAYRQPREKMDFYTLLDNWVIKGDVPMPEQQHYVIATLIRGGVFGEKGE
